The results in this text go back to PubChem BioAssay AID1159614 (National Center for Advancing Translational Sciences (NCATS), 2016).

Out of some 45,000 compounds screened, about 65 (0.1%) were called active. Calls come from the whole dose curve; as a rule, active = well fitted activation curve with a large enough effect; inconclusive = small, poorly fitted or top-dose-only effect; inactive = no such curve, though single readings can be large or run the other way. This is one part of the list.

Sequence of UniProt P54803 (P54803 whole entry, looked up): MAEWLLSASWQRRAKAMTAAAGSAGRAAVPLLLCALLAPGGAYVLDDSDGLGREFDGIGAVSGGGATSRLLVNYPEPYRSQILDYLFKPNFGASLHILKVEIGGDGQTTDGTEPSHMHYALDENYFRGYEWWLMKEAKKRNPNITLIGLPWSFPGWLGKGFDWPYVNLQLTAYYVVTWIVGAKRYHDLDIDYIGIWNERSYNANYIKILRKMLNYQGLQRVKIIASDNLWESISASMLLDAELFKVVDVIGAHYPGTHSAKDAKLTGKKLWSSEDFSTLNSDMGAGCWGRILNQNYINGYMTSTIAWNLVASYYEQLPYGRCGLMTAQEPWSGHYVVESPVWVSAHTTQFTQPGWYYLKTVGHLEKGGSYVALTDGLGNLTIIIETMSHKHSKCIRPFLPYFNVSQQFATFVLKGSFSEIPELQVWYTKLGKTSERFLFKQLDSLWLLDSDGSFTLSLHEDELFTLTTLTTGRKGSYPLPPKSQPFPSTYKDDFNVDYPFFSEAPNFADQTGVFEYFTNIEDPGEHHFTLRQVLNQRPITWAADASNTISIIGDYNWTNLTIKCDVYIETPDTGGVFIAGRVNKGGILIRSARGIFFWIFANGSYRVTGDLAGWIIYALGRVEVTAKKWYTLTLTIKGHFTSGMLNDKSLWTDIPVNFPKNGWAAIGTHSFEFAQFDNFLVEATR

The assay has as its target Galactocerebrosidase (Homo sapiens) (UniProt P54803). Put plainly: A Novel Cell-Based Assay to Identify Small Molecules for B -Galactocerebrosidase. Note: 0% is about no effect; nearly all actives have a fitted effect of over 65% in size. The following applies: 145M-Twi-hGALC-G270D cells, HMU-beta-Gal fluorescence, 48 h; series mostly up to 57.5 µM; activation: at the top concentration. The method, boiled down:
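qHTS, 1536-well; 145M-Twi-hGALC-G270D cells (WT line also made) in DMEM/F12 + 10% FBS; compound incubation on live cells; HMU-β-gal 0.1 mM final, pH 5.2, NaTC; carbonate stop; fluorescence increase = enhanced residual activity.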
On to `O=C(Nc1ccc(S(=O)(=O)N2CCC(c3nc4ccccc4s3)CC2)cc1)c1ccccc1F`, for which the “activation” value is inactive: -7.74%.
The result for `Cc1cccc(C(=O)Nc2ccc(N3CCC(CCN4CCOCC4)CC3)c(C(=O)O)c2)c1` reads inactive: -29.8%; that for `CCCCCOc1ccc(C(=O)N(Cc2ccccc2)C2CCS(=O)(=O)C2)cc1` (configuration not stated), inactive: -10.3%.
Take `CCOC(=O)c1nc(Nc2cccc(C)c2)c2ccccc2n1`: the “activation” value is inactive: -13.9%.
In the case of `CCOc1ccc(CNC(=O)CCn2cccn2)cc1OC` it was inactive: -13.7%; in that of `Cc1ccc2nc(/C(C#N)=C/c3ccc(-c4cccc(Cl)c4)o3)[nH]c2c1`, inactive: 2.25%.
The result for `CCN(C(=O)NCc1noc2ccccc12)c1cc(C)ccc1C` reads inactive: -15.3%.
The result for `CCC(C(=O)NCCc1ccc(Cl)cc1)n1nc(C)c2c(C)n(-c3ccccc3)nc2c1=O` (configuration not stated) reads inactive: -19.3%; that for `CCN(CCCNC(=O)c1nn(-c2ccc(OC)cc2)c(=O)c2c1c1ccccc1n2C)c1cccc(C)c1`, inactive: 0.593%.
For the compound `COc1ccc(-c2cccc(NS(=O)(=O)c3cc(C)c(Cl)cc3C)c2)nn1`, the “activation” value was inactive: -1.9%.
In the case of `CCCCC12CN3CC(C)(CN(C1)C3c1c(C)[nH]c(=O)[nH]c1=O)C2=O` (configuration not stated) it was inactive: -26.3%; in that of `Cc1cccc(CS(=O)(=O)Cc2ccc(C(=O)NCc3ccc(Cl)cc3)o2)c1`, inactive: -15.8%; in that of `CCOc1ccc(NC(=O)CN2C(=O)C(c3ccccc3)=NC23CCCCCC3)cc1`, inactive: -11.4%.
In the case of `Cc1cccc(Cn2c(C)c(C)c3cc(C(=O)NCc4ccc(C)o4)ccc32)c1` it was inactive: 10.8%; in that of `Cc1cc(NC(=O)CN(C)S(=O)(=O)c2ccc3c(c2)CCC(=O)N3)ccc1Br`, inactive: -12.2%.
The result for `CCOc1ccc(CN2C(=O)c3ccccc3Sc3ccc(C(=O)NCc4ccc(C)cc4)cc32)cc1` reads inactive: -20.3%; that for `Cc1ccc(Nc2nccc(N(C)c3ccc4c(C)n(C)nc4c3)n2)cc1S(N)(=O)=O`, inactive: -5.73%.
Regarding `O=C(CSc1oc(-c2ccco2)nc1S(=O)(=O)c1ccc(Cl)cc1)c1ccccc1`, the “activation” value is inactive: 5.29%.
The result for `COc1cccc(CSc2nc3n(n2)C(c2ccccc2C)C(C(=O)Nc2ccccc2OC)=C(C)N3)c1` (configuration not stated) reads inactive: -12.3%.
In the case of `Cc1nc2nc(SCC(=O)NC(C)c3ccccc3)nn2c(C)c1Cc1c(F)cccc1Cl` (configuration not stated) it was inactive: -16%; in that of `CCN(CC)CCNC(=O)c1cc(Br)c(N)cc1OC`, inactive: -3.72%; in that of `COCCCn1c(=N)c(C(=O)NC2CCCC2)cc2c(=O)n3ccccc3nc21`, inactive: -15.2%.
Turning to `Cc1ccc(-c2nc3c4cnn(-c5cc(Cl)ccc5Cl)c4ncn3n2)cc1`, the “activation” value is inactive: 2.89%.
In the case of `Cc1ccc(CCNC(=O)CCSCc2ccc(Cl)cc2)cc1` it was inactive: -2.1%; in that of `CC(=O)Nc1ccc(NC(=O)CN2C(=O)CN(C)C(=O)c3ccccc32)cc1`, inactive: -5.82%; in that of `CC(C)Cc1nn2c(=O)cc(COC(=O)c3ccccc3NC(=O)c3ccccc3)nc2s1`, inactive: -4.5%.
On to `Cc1ccc(S(=O)(=O)c2nnn3c2nc(Nc2ccc(C(C)C)cc2)c2sccc23)cc1C`, for which the “activation” value is inactive: -8.61%.
